# From paper PMC6120190, “Identification of two distinct peptide-binding pockets in the SH3 domain of human mixed-lineage kinase 3” (The Journal of Biological Chemistry, 2018)
# Results are given in words; binding and its absence hold for the method and conditions named. Some entries that bind do so weakly or less than the wild type. For part of these data: Where a sequence is shown, tags or fusion partners need not be part of it.
# B1: GST-MLK2 SH3 (domain or fragment, UniProt Q02779 16-81)
# chain: PAGPVWTAVFDYEAAGDEELTLRRGDRVQVLSQDCAVSGDEGWWTGQLPSGRVGVFPSNYVAPGAP
# B2: MLK3 SH3(41–105)-MIP(1–13)R12A fusion protein (protein, UniProt Q16584 41-105)
# chain: YANPVWTALFDYEPSGQDELALRKGDRVEVLSRDAAISGDEGWWAGQVGGQVGIFPSNYVSRGGGAIRINPNGTWSAQ
# B3: MLK3 SH3(41–105)-MIP(1–13)W10A fusion protein (protein, UniProt Q16584 41-105)
# chain: YANPVWTALFDYEPSGQDELALRKGDRVEVLSRDAAISGDEGWWAGQVGGQVGIFPSNYVSRGGGAIRINPNGTASRQ
# Molecular target: T1, biotinylated MIP (…-K-biotin)
# T1 sequence (peptide, biotin on the added C-terminal K): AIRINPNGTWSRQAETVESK
# Assay: ELISA; both purified
row,Binder,binding
1,B1,no binding (tested: 0.15 μM)

# Molecular target: T2, GST-MLK3 SH3(43–104) (human, UniProt Q16584 43-104)
# T2 construct: also called GST-MLK3 SH3-WT; SH3 WT
# T2 sequence (looked up): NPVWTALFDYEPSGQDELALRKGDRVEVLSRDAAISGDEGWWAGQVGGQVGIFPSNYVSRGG
# Assay: ELISA; only the target purified
row,Binder,binding
1,"AIRINPNGTWSRQAATVES [phage-displayed MIP, alanine replacement at Glu-15]",binds
2,"AIRINPNGTWSRQAETVEA [phage-displayed MIP, alanine replacement at Ser-19]",binds
3,"AIRINPNGTWSRQAEAVES [phage-displayed MIP, alanine replacement at Thr-16]",binds
4,"AIRINPNGTWSRQVETVES [phage-displayed MIP, Ala-14 replaced with Val]",binds
5,"AIRINANGTWSRQAETVES [phage-displayed MIP, mutation of Pro-6 to Ala]",binds
6,IRINPNGTWSRQAETVES [phage-displayed truncated version of MIP (ΔA1)],no binding
7,"AIRINPNGTWSRQAETVAS [phage-displayed MIP, alanine replacement at Glu-18]",binds
8,"AIRINPNGTWSRQAETAES [phage-displayed MIP, alanine replacement at Val-17]",binds
9,"AIRINPNGTWSRAAETVES [phage-displayed MIP, alanine replacement at Gln-13]",binds

# Molecular target: MLK3 SH3(41–105)-MIP(1–13)R12A fusion protein (human) (UniProt Q16584)
# Assay: SEC; both purified
row,Binder,binding
1,B2,no binding

# Molecular target: MLK3 SH3(41–105)-MIP(1–13)W10A fusion protein (human) (UniProt Q16584)
# Assay: SEC; both purified
row,Binder,binding
1,B3,no binding
